Consider 111 sequences from the supplement of paper PMC10126150.

Sequences with one replicate were seen in a single cluster, so their values are uncertain.

The subject of this data set is ATP. Briefly: switch fluorescence ratio, 500 uM ATP over buffer (Cy3 cluster intensity, sum of 5 cycles each) (fold (ratio)); higher = stronger signal-on switching upon ATP binding; sequences stand for … in TCGTCGGCAGCGTCAGATGTGTATAAGAGACAGTTTTTTTTTTTTTTTTTTTTTTTTT…TC. To be noted: aptamer strand: ATP DNA aptamer (quencher-CACCTGGGGGAGTATTGCGGAGGAAGG + anchor), 100 nM annealed; ATP concentration: 500 uM; one replicate. The essentials: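 The fluorescence ratio divides summed target-cycle Cy3 intensity by summed buffer-cycle Cy3 intensity for each cluster and is averaged per switch-domain sequence. Cy3-labelled switching-strand clusters on a modified Illumina MiSeq flow-cell were annealed to 100 nM quencher-labelled ATP aptamer, then imaged in selection buffer and again after 15 min with 500 uM ATP at 22 °C. Five such cycles were run, with NaOH stripping and re-annealing between them, and clusters outside 100-1000 RFU were excluded.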
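Note: ATP exposure 15 min at 22 °C before imaging.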

For the sequence CGTATACGAC, the switch fluorescence ratio came to 1.15.

Take TATTACCCGT: the switch fluorescence ratio worked out at 1.02. Consider TCGGCTGGAT, for which the switch fluorescence ratio came out at 1.06. With CGGTTAACTT, the switch fluorescence ratio turned out to be 1.03. For TATGGGCACC, the switch fluorescence ratio was 1.02.

For the sequence AGTTTTCTGT, the switch fluorescence ratio stood at 0.962.

Take TGACAGCAAC: the switch fluorescence ratio came to 2.69. Take CATGGTATGG: the switch fluorescence ratio worked out at 0.953. As for TCGAGATTTT, the switch fluorescence ratio amounted to 1. The value for TAGCGGCGCT was 0.997; that for GCGAGGGT was 1. Regarding GTAGAGTTTG, the switch fluorescence ratio was found to be 1.21. Turning to CCAGTGAGTT, the switch fluorescence ratio came out at 0.986. As for TAGTTTGTAA, the switch fluorescence ratio was determined as 1.04.

Take ACGCATGTTC: the switch fluorescence ratio was 1.31.

Turning to CTAGTAGCAG, the switch fluorescence ratio was 0.959.

With CGTGGGTGGC, the switch fluorescence ratio stood at 1.01.

As to TTACACTGTC, the switch fluorescence ratio was 1.09. The value for CCTTTTATGC was 1.29; that for AGCTTAGGCG was 1.01; that for AAAATTCCGA was 1.04. On to GGTGTCCTGA, for which the switch fluorescence ratio amounted to 0.975. Under ATCATGCAGG stands 1.04; under GGTCGTATGG, 0.922. Under TGCCTCTGAG stands 1.04. For the sequence AATACGGGGC, the switch fluorescence ratio worked out at 0.99. The value for AATCTGATAG was 1.01. The value for TGCGGTTCCT was 1.05. In the case of CTAGACGGTG, the switch fluorescence ratio came to 1.02. As to GTGGCCTGGG, the switch fluorescence ratio worked out at 1.03. GTAAAGCGCG: the switch fluorescence ratio is 1.06. For GGTTAATTTC, the switch fluorescence ratio came out at 0.97. As to ATGGAAGAAG, the switch fluorescence ratio came to 0.96. Under ATAACTGGCA stands 0.968; under CACACCGTGT, 0.954; under AACTCAGGGC, 1.01. The value for GTTATGGGCG was 0.987; that for CGCTCCTTAT was 1; that for GACACACG was 1.14.

With GACAATGCGC, the switch fluorescence ratio is 1.15. As to TTACTCGACA, the switch fluorescence ratio is 1.12.

With GGGCTTGAG, the switch fluorescence ratio was determined as 1.01.

Regarding AGCCAATATC, the switch fluorescence ratio was 2.58.

For the sequence CGCTCCCGAG, the switch fluorescence ratio came to 1.06. The value for GAGGAACTTG was 0.98; that for TAAGATCCA was 0.987; that for GTCCGGATCT was 1.08. Turning to AATTCATGG, the switch fluorescence ratio is 0.984. The value for GGGACCCTTT was 1.02; that for CAGGGGCTAT was 1.02; that for AACCGAGGTA was 0.999. For TTGCAAAAAA, the switch fluorescence ratio was determined as 1.05. Under TGAATTTGC stands 0.969; under TACCTAGACT, 1.08. Under TCGGGCTCCT stands 1.03.

With TGAAGATTT, the switch fluorescence ratio was found to be 1. Under GGACACTCAA stands 1.02. ATTACAGGAA: the switch fluorescence ratio was 1.01. Regarding GTATCGAATT, the switch fluorescence ratio came out at 0.976.

With CGTGCTATAA, the switch fluorescence ratio was determined as 1.43. Regarding TCAGATGTAT, the switch fluorescence ratio is 0.989.

For GCACGTTTGG, the switch fluorescence ratio worked out at 1.09.

GTTGCTCGGA: the switch fluorescence ratio worked out at 1.04.

On to CTGGTATCAC, for which the switch fluorescence ratio stood at 0.98. For the sequence GATTCGAGTG, the switch fluorescence ratio was 0.963. On to ACCCGGGGCC, for which the switch fluorescence ratio amounted to 1.01. Under AAAATCATCA stands 0.999.

In the case of GGGTGTTTGA, the switch fluorescence ratio stood at 1.04.

For the sequence CGCATGCCAT, the switch fluorescence ratio turned out to be 0.979. As for TGCGTGCGGG, the switch fluorescence ratio was 1.04. The value for ATTACAGGTT was 1.01. GTCAACGAGC: the switch fluorescence ratio stood at 1.1.

Consider AACACTTTAC, for which the switch fluorescence ratio is 1.38. Under AAGAAAGAGT stands 1.01. Under GCTTCGCGGC stands 2.89; under TCATCCATTG, 0.999. The value for ACTTACATGT was 1.22; that for CGTCAAGGGG was 1.02. Take CCTGAGGCCG: the switch fluorescence ratio worked out at 1.16.

As to GTTTTTGCAT, the switch fluorescence ratio turned out to be 1.03. Take GCGCGGAGCC: the switch fluorescence ratio is 1.02. Under GTTATACGGC stands 0.975; under GGCGGTCGAG, 1.05. The value for AGGTTGTAT was 0.983; that for CGGCCTGAAA was 0.939; that for TCTCTAATTG was 0.974. The value for CAACTTGAAT was 0.965; that for GCCCGTACTT was 1. As to GCACTCTGAA, the switch fluorescence ratio worked out at 1.02. Consider AATGAGGTAA, for which the switch fluorescence ratio worked out at 0.994. Turning to GATTTTTCGG, the switch fluorescence ratio was determined as 1.01. AAGGTGGTG: the switch fluorescence ratio worked out at 0.962. TTACTGCGCG: the switch fluorescence ratio was determined as 0.971.

CGTCCGAATA: the switch fluorescence ratio was found to be 3.95.

Turning to AGGGATTTGC, the switch fluorescence ratio amounted to 1.01. For the sequence TTTTCAGTCT, the switch fluorescence ratio came to 1.04.

Consider CGTCGGCTGT, for which the switch fluorescence ratio worked out at 1. As to CAAGGGGTTG, the switch fluorescence ratio came to 1.03. Under TTTTATTCGC stands 0.995.

For the sequence GGAGAAAGGC, the switch fluorescence ratio worked out at 1.7. Under TCGGCGCAAT stands 2.1.

For the sequence CTAGTCACTG, the switch fluorescence ratio came to 0.967. The value for CCAGAAACCA was 1.07; that for GGAAAAATTT was 0.987. For the sequence AATCCCGGCA, the switch fluorescence ratio turned out to be 1.14. Under ACCTGATCGG stands 1.02; under TCGAAATTCC, 1.11. With TAAGTATAGA, the switch fluorescence ratio came out at 0.996. Take CGCTTTACCT: the switch fluorescence ratio came to 1.27. Regarding CCTAGATCGC, the switch fluorescence ratio came to 1.04. Turning to TGTGAATGAC, the switch fluorescence ratio stood at 1.
